Reference: PubChem BioAssay AID493208 (National Center for Advancing Translational Sciences (NCATS), 2011)
The campaign covered roughly 44,000 compounds. About 340 (0.77%) were called active. About 5% were inconclusive and are not listed. Calls come from the whole dose curve; as a rule, active = well fitted inhibition curve with a large enough effect; inconclusive = small, poorly fitted or top-dose-only effect; inactive = flat fitted curve, though single readings scatter. The list shows a part of the results.

Assay: Acumen qHTS Assay for Inhibitors of the mTORC1 Signaling Pathway in MEF (Tsc2-/-, p53-/-) Cells: Sytravon;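 note: plate controls were DMSO for no effect and rapamycin for full effect; nearly all actives have a fitted effect of over 50% in size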
Settings: phospho-rpS6 immunofluorescence/PI, 24 h; series mostly up to 38.3 µM; activity change, negative = inhibition: at the top concentration
Summary of the method: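 Read-out: phospho-S6 Alexa-488 intensity over PI intensity per well, scored as % active cells using thresholds from rapamycin (7.5 nM) and DMSO controls. Tsc2-/-, p53-/- MEFs exposed to compound for 24 h; PI cell count recorded as viability.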

Activity change, negative = inhibition, inactive:
CCOC(=O)C1CCC(CN(Cc2ccc(OC)cc2)S(=O)(=O)c2ccc(C)cc2)CC1 (configuration not stated) -8.2%
Cc1ccc(NC(=O)CN(C)S(=O)(=O)c2cccc3cccnc23)c(C)c1 -1.39%
O=C(Cn1ncn2c(cc3cc(F)ccc32)c1=O)NC1CCCCC1 0.578%
COC(=O)c1ccccc1NC(=O)c1cc2ccccn2n1 -1.53%
Cc1nn2c(=O)cc(COC(=O)c3ccc(NC(=O)CCc4ccccc4)cc3)nc2s1 27%
CCc1noc(-c2ccc(N3CCC(C)CC3)c([N+](=O)[O-])c2)n1 -4.45%
Cc1cccc(OCCn2c(SCC(N)=O)nc3ccccc32)c1 12.9%
COc1ccc(CCNC(=O)C(=O)NCC(c2ccco2)S(=O)(=O)c2cccs2)cc1 (configuration not stated) -5.86%
CCC(Sc1nc2cc3c(cc2c(=O)n1CCCCCC(=O)NCc1ccc2c(c1)OCO2)OCO3)C(=O)NCCCOC (configuration not stated) -2.02%
CC(C)C(=O)Nc1ccccc1C(=O)OCc1cc(=O)n2nc(C3CC3)sc2n1 0%
Cc1c(Cl)cccc1NC(=O)c1cc(-c2cccc(Cl)c2)on1 -23.3%
O=C(Nc1cccc(Br)c1)Nc1nc2c(s1)CCCCCC2 3.18%
O=C(CN1C(=O)c2cccnc2Oc2ccc(Cl)cc21)NCCCN1CCCCC1 1.47%
Cc1cccc(-c2nc3cc(NC(=O)c4ccc(OCC(C)C)cc4)ccc3o2)c1 11.1%
CCOC(=O)N1CCC(NC(=O)c2cnn(-c3ccc(C)cc3)c2-n2cccc2)CC1 -2.32%
Cc1ccn2c(c1)nc(=O)c1cc(S(=O)(=O)N3CCCCC3)ccc12 -0.48%
COc1ccc(NC(=O)c2cnc(N3CCOCC3)c3ccccc23)cc1OC 1.28%
COc1cccc(CCNC(=O)c2ccc(Cn3c(SCc4ccccc4)nc4cccnc43)cc2)c1 -6.54%
Cc1cccn2c(=O)c3cc(C(=O)NC(C)C)n(C)c3nc12 2.95%
O=C(Nc1ccc2nc(SCCOc3ccccc3)sc2c1)c1ccco1 -1.57%
Cc1ccccc1NC(=O)C1CCN(C(=O)c2ccc(F)cc2)CC1 4.25%
COc1ccc(-c2nc3ccccc3n2Cc2ccc(C(C)C)cc2)cc1 -10.9%
CCOc1ccc(NC(=O)Cn2cc(C(=O)c3ccc(F)cc3)c(=O)c3cc4c(cc32)OCO4)cc1 -0.252%
COc1ccc(CCNS(=O)(=O)c2cc(-c3cc(C)no3)ccc2OC)cc1OC 5.08%
CCOc1ccc(OCc2ccc(C(=O)Nc3cc(OC)c(OC)c(OC)c3)o2)cc1 1.67%
CC(C)c1ccc(-c2noc(SCC(=O)N3CCN(c4ccc(F)cc4)CC3)n2)cc1 2.94%
Cc1ccc(C)c(NC(=O)N(C)CCc2c(C)nn(C)c2C)c1 19.6%
O=C(CCc1ccccc1)N(Cc1cccnc1)c1nc2c(F)cc(F)cc2s1 -1.15%
Cc1ccc(C)c(Nc2nn3c(=O)c4ccc(C(=O)NCCC5=CCCCC5)cc4nc3s2)c1 -4.64%
Cc1ccc(N2CC(C(=O)NCCS(=O)(=O)N3CCN(c4ccccc4)CC3)CC2=O)cc1C (configuration not stated) -1.72%
CCOc1ccc(-c2nc(CNC(=O)NC3CCCCC3)c(C)o2)cc1 -2.98%
CCNc1nc(N)nc(Oc2ccc(OCC(=O)OC)nn2)n1 2.1%
CCN(CC)CCNc1ncnc2c1cnn2-c1cc(Cl)ccc1C 0.0344%
Cc1ccc(C(=O)Nc2nc3nc(C)cc(=O)n3[nH]2)cc1 -2.22%
CCCN(C(=O)C(=O)Nc1ccc2nc3n(c(=O)c2c1)CCCCC3)c1ccc(OCC)cc1 1.62%
COc1cccc(CNC(=O)CSc2nc(=O)[nH]c3c2CCC3)c1 -4.74%
CCOc1ccccc1C(=O)Nc1cccc2ccc(C)nc12 -10.4%
O=C(NCCc1csc(-c2ccc(Cl)cc2)n1)c1ccco1 2.08%
COc1ccc(CCNc2nc3ccc(Cl)cc3n3cnnc23)cc1OC 4.1%
Cc1cccc2nc(-c3ccc(N(C)C)cc3)c(Nc3ccc4c(c3)OCO4)n12 -13.3%
Cc1ccc(NC(=O)/C=C/c2ccc(Cl)cc2)c(Br)c1 0.413%
COc1cc(C2CC(=O)c3c([nH]c(C(=O)OCc4ccc(C)cc4)c3C)C2)cc(OC)c1OC (configuration not stated) -2.26%
COc1ccccc1-c1nnc(C2CCN(C(=O)c3cccc(Cl)c3)CC2)o1 -11.7%
Cc1cccc(C(c2sc3nc(-c4ccco4)nn3c2O)N2CCN(Cc3ccccc3)CC2)c1 (configuration not stated) -4%
CCOC(=O)c1ccccc1NC(=O)Cn1c(=O)n(CCC(=O)N2CCc3ccccc3C2)c(=O)c2ccccc21 -17.7%
COc1cc(NC(=O)c2cc(Cl)ccc2Cl)ccc1NC(=O)c1cc2ccccc2o1 15.2%
COCCCNC(=O)c1[nH]c2ccccc2c1Sc1ccc(C)cc1 -15.9%
CN(C)c1ccc(CNC(=O)c2cnc3sc(N4CCCC4)nn3c2=O)cc1 -4.04%
Cc1ccccc1NC(=O)Cn1c(=O)n(CCCCCC(=O)NCc2ccccc2Cl)c(=O)c2sccc21 -15.2%
CCS(=O)(=O)N1CCc2cc(C(=O)NCc3ccc(Cl)cc3)ccc21 -5.84%
O=C(Cc1ccccc1)N(Cc1cccnc1)c1nc2ccc(Cl)cc2s1 -6%
CCCOc1ccc(C(=O)Nc2ccc3oc(-c4ccc5ccccc5c4)nc3c2)cc1 2.92%
COc1ccc(NC(=O)c2ccc3c(SCC(=O)O)c4c(nc3c2)CCCC4)cc1OC 0.472%
CCOC(=O)c1c(C)oc2ncnc(N3CCN(c4ccc(C)cc4C)CC3)c12 2.22%
O=C(NCCc1ccccc1)c1cc(-c2ccc(Br)cc2)on1 -7.59%
CCOC(=O)c1cccc(-n2nnc3c(sc4nc(C)c(Br)c(C)c43)c2=O)c1 -2.78%
Cc1sc2ncn(CC(=O)Nc3ccc(F)cc3Cl)c(=O)c2c1S(=O)(=O)N1CCN(c2ncccn2)CC1 -2.15%
Cn1c(=O)c2c(nc(Oc3ccc(C#N)cc3)n2Cc2ccc(Cl)cc2Cl)n(C)c1=O -9.58%
CCOC(=O)c1ccccc1NC(=O)Cn1c(=O)n(CCC(=O)NCc2ccccc2OC)c(=O)c2ccccc21 -24.7%
COc1cccc(-c2nnc3n(Cc4ccc(C)cc4)c(=O)c4ccccc4n23)c1O 3.03%
CCN1CCN(c2csc3ccc(F)cc3c2=O)CC1 1.28%
CCCCN(Cc1cccs1)S(=O)(=O)c1cc(-c2cc(C)no2)ccc1C -12.5%
Cc1cccn2c(=O)cc(CSc3nnc(NC(=O)COc4ccc(F)cc4)s3)nc12 -4.42%
COc1cccc(CNC(=O)c2[nH]c3cc(C)ccc3c2Sc2ccccc2)c1 0.502%
CCOC(=O)c1c(S(=O)(=O)NCC(=O)N2CCN(c3cccc(Cl)c3)CC2)c(C)n(C)c1C -0.159%
COc1ccc(-c2nc3scc(CCNS(=O)(=O)c4c(C)noc4C)n3n2)cc1OC -14.9%
COc1ccccc1NC(=O)c1oc2ccccc2c1NC(=O)C(C)C -1.47%
Cc1cccc(NC(=O)CSc2nnc3scc(-c4ccccc4)n23)c1 0.892%
COc1cccc(-c2nnc(-c3cc4cc(Cl)ccc4oc3=O)o2)c1 7.14%
O=C1CCc2cc(S(=O)(=O)NCc3ccc(Cl)cc3)cc3c2N1CC3 0%
COc1cc(-c2noc(CSc3nc(-c4ccc(F)cc4)cc(=O)[nH]3)n2)cc(OC)c1OC -21.1%
CCC1CCC(C(=O)NC(C(=O)NCCN(CC(C)C)CC(C)C)C(C)C)CC1 (configuration not stated) -11%
COc1ccccc1NC(=O)Cn1cnc2c(nc3n2CCCCC3)c1=O 1.9%
O=c1c(N2CCN(c3cccc(C(F)(F)F)c3)CC2)csc2ccccc12 1.16%
CC1CCN(S(=O)(=O)c2ccc3c(c2)c(=O)c(C(=O)NCc2ccc(Cl)cc2)cn3C)CC1 3%
Cc1ccccc1CNC(=O)c1ccccc1NC(=O)c1nsc2ccccc12 -18.2%
CC(C)(C)c1ccc(CSc2nc3c(c(=O)[nH]2)CCCC3)cc1 -0.812%
O=C(Nc1ccc(Cl)c(C(F)(F)F)c1)C1CCCN(S(=O)(=O)c2cccc3cccnc23)C1 (configuration not stated) -0.126%
O=C(Nc1ccc(F)cc1)N1CCN(c2ccc3nnc(-c4ccc(F)cc4)n3n2)CC1 -0.246%
Cc1ccc(-n2nnc(-c3nsc(NC(=O)c4ccccc4C)n3)c2C)cc1Cl -5.02%
CCOc1ccc(Nc2c(S(=O)(=O)c3ccc(Cl)cc3)cnc3ccc(OC)cc23)cc1 -0.318%
COc1cccc(CN2C(=O)N(c3ccc(C)cc3)C(=O)C2CC(=O)Nc2cc(OC)cc(OC)c2)c1 (configuration not stated) -0.376%
COc1ccc(-c2cn3c(n2)sc2cc(C(=O)NCc4cccs4)ccc23)cc1 7.7%
COc1ccc(-c2c3c(=O)n(C)c(=O)n(C)c3cn2-c2cccc(N)c2)cc1 0.927%
CCOC(=O)CC(NC(=O)CCc1c(C)nc2c(-c3ccccc3)c(C)nn2c1C)c1ccc(C)cc1 (configuration not stated) -9.65%
Cc1ccc(CNC(=O)C2CCN(C(=O)c3ccc(-n4ccc5ccccc54)s3)CC2)cc1 -5.62%
COc1ccc(Cn2ccc3nc(C)c(C(=O)Nc4ccc(F)cc4)cc3c2=O)cc1 -22.6%
CCn1cc(C(=O)NCCc2ccc(Cl)cc2)c(=O)c2cc(S(=O)(=O)N3CCc4ccccc4C3)ccc21 -12%
COCCCNC(=O)c1[nH]c2cc(OC)ccc2c1Sc1ccc(C)cc1 -1.18%
Cc1c(NC(=O)Cc2ccc(F)cc2)cccc1-c1nc2cccnc2s1 -0.455%
Cc1cccc(NC(=O)CSc2nc3ccc(NC(=O)COc4ccc(Cl)cc4)cc3s2)c1 -23.5%
Fc1ccc(-c2nc(-c3cccs3)c(-c3cccs3)[nH]2)cc1 -9.07%
Cc1cccc(NC(=O)c2cc3c(=O)n(Cc4ccco4)ccc3nc2C)c1 -3.49%
Cc1nn(-c2ccccc2)c2c1N(CC(=O)NCc1ccc(N(C)C)cc1)C(=O)CS2 -7.03%
O=C(NCCOCCO)C(=O)Nc1c2c(nn1-c1ccc(F)cc1)CSC2 1.46%
CCC(=O)N1CCc2cc(S(=O)(=O)CCC(=O)N3CCN(c4ccccc4Cl)CC3)ccc21 -4.61%
CN(c1ncnc2c1c(-c1ccccc1)cn2-c1ccc(F)cc1)C1CCCCC1 -14.7%
